Reference: patent US20250288553A1, “Antimicrobial Compositions and Uses for Treatment of Clostridioides difficile, Mycobacterium tuberculosis, and Enterococcus faecalis Infection” (priority 2022, published 2025)

Columns and labels:
[1] = tested on: M. smegmatis mc^2155 ATCC 700084; assay: MIC against M. smegmatis, REMA; set-up: key: (—) = no activity seen; conditions: determined visually by REMA assay, 24-hour incubation
[2] = tested on: Mycobacterium tuberculosis H37Ra ATCC 25177; assay: MIC against Mtb H37Ra, resazurin microtiter assay (REMA); set-up: key: (—) = no activity seen; conditions: determined visually by REMA assay, 14-day incubation

Row | Structure (SMILES) | MIC M. smegmatis [1] | MIC Mtb H37Ra [2]
1 | CC1(C)CCC[C@]2(C)[C@H]3C=C4C=C(O)C(=O)C=C4O[C@@]3(C)CC[C@@H]12 [Compound 1, (+)-Puupehenone] | — | 
2 | CC(=O)Oc1cc2c(cc1OC(C)=O)[C@@H](OC(C)=O)[C@@H]1[C@@]3(C)CCCC(C)(C)[C@@H]3CC[C@]1(C)O2 [Compound 20, 15-α-acetoxypuupehenol diacetate] | — | 
3 | CCC(=O)Oc1cc2c(cc1OC(=O)CC)[C@@H](OC(=O)CC)[C@@H]1[C@@]3(C)CCCC(C)(C)[C@@H]3CC[C@]1(C)O2 [Compound 21] | — | 
4 | CC1(C)CCCC2(C)C1CCC(C)(O)C2Cc1ccc(O)cc1 (stereo not shown) [Compound 34] | — | —
5 | CC(C)C(=O)Oc1cc2c(cc1OC(=O)C(C)C)[C@@H](OC(=O)C(C)C)[C@@H]1[C@@]3(C)CCCC(C)(C)[C@@H]3CC[C@]1(C)O2 [Compound 22] | — | —
6 | CO[C@@H]1c2cc(OC(=O)C(C)(C)C)c(O)cc2O[C@@]2(C)CC[C@H]3C(C)(C)CCC[C@]3(C)[C@@H]12 [Compound 19, 15-α-methoxypuupehenol monopivalate] | — | 
7 | CC1(C)CCCC2(C)C1CCC(C)(O)C2Cc1ccc(OCc2ccccc2)cc1 (stereo not shown) [Compound 33] | — | 
8 | CC1(C)CCC[C@]2(C)[C@@H]1CC[C@]1(C)Oc3ccc(O)cc3C[C@@H]21 [Compound 31, (+)-Chromazonarol] | — | 
9 | CO[C@@H]1c2cc(OC(=O)C(C)C)c(OC(=O)C(C)C)cc2O[C@@]2(C)CC[C@H]3C(C)(C)CCC[C@]3(C)[C@@H]12 [Compound 17] | — | 
10 | CO[C@@H]1c2cc(OC(=O)c3ccccc3)c(OC(=O)c3ccccc3)cc2O[C@@]2(C)CC[C@H]3C(C)(C)CCC[C@]3(C)[C@@H]12 [Compound 18] | — | —
11 | CCC(=O)Oc1cc2c(cc1OC(=O)CC)[C@@H](OC)[C@@H]1[C@@]3(C)CCCC(C)(C)[C@@H]3CC[C@]1(C)O2 [Compound 16] | — | 
12 | CC1(C)CCCC2(C)C1CCC(C)(O)C2Cc1ccc(O)c(O)c1 (stereo not shown) [Compound 38] | — | —
